Reference: PMC4336329 (PLoS ONE, 2015)
Among all 310,000 compounds or so, about 2,200 (0.71%) showed an effect of 50% or more. The effect is printed as a negative number. The list shows a part of the results.

Target: human ether-à-go-go-related gene (hERG) potassium channel (human, UniProt Q12809)
Test: primary screen, population patch clamp on CHO cells stably expressing hERG

Chain of human ether-à-go-go-related gene (hERG) potassium channel (Q12809 whole entry, looked up): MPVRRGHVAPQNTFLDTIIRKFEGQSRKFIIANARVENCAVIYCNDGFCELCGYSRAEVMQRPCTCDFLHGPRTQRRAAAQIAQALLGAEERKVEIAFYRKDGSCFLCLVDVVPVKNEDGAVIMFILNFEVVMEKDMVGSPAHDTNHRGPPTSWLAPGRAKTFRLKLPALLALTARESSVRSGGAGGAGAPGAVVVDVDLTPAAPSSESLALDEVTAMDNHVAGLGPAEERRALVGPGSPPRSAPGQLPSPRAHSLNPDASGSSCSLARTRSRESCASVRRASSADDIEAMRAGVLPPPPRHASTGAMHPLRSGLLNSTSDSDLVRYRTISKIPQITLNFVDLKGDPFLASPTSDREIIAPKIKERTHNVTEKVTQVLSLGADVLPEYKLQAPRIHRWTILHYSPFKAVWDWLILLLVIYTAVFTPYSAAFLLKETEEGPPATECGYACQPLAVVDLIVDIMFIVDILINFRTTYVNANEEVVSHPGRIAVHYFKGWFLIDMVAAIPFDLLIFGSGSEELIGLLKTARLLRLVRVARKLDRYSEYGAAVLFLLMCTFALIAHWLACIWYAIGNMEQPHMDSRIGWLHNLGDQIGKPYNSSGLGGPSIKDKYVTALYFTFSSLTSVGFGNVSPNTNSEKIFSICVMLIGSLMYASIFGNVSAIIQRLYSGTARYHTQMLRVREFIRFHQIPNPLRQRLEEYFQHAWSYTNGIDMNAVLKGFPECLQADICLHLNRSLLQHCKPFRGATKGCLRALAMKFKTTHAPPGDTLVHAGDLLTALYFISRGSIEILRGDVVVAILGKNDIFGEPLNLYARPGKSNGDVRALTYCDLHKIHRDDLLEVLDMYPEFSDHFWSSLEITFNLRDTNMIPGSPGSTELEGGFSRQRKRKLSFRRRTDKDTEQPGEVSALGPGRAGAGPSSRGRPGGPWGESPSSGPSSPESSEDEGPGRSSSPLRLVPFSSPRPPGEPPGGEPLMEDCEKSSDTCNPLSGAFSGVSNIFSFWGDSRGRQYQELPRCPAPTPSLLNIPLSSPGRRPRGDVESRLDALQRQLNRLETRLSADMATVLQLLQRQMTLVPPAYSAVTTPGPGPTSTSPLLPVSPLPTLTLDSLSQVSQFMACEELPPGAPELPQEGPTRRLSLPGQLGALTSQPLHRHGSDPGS

SMILES	hERG current change (%, negative = inhibition) at 1uM [%]
COc1ccc(C(=O)NCCCNC(=O)c2cc3ccccc3[nH]2)cc1OC	9.21
COc1ccccc1CNC(=O)C/C(C)=N/NC(=O)Cc1ccc(OC)c(OC)c1	8.26
COc1ccc(C(=O)c2sc(Nc3cccc(OC)c3)c(C(=O)Nc3cccc(C)c3C)c2N)cc1	-5.14
Cc1nc(SCC(=O)O)n[nH]1	11.7
CN1CCN(CC(=O)N(Cc2c(C#N)c3ccccc3n2C)c2ccccc2)CC1	3.1
O=C(NCc1cccc(F)c1)C1CCC(=O)N(CCCN2CCOCC2)C1 (stereo not drawn)	12.3
Cc1ccc(S(=O)(=O)N2CCN(S(=O)(=O)N(C)C)CC2)c(C)c1	-0.392
O=C(Nc1cccc2ccccc12)/C(=C/c1cccc([N+](=O)[O-])c1)NC(=O)c1cccs1	-37.8
Cc1cccc(C(=O)OC(C)CN2CCN(C)CC2)c1.Cl (stereo not drawn)	2.27
O=C(O)CC1c2ccccc2S(=O)(=O)N1Cc1ccccc1 (stereo not drawn)	8.96
N#CCCN(C(=O)COC(=O)c1ccc2ccccc2n1)c1ccccc1	11.8
CCOC(CNC(=O)C1CCN(S(=O)(=O)c2ccc3nc4c(c(C(=O)O)c3c2)CCCCC4)CC1)OCC	12.6
COc1ccccc1NC(=O)C1=C(C)Nc2nnnn2C1c1ccncc1 (stereo not drawn)	-14.4
Cc1onc(-c2c(Cl)cccc2Cl)c1C(=O)c1ccc(F)cc1	17.1
CCCCNCc1cc(Cl)c(OCCC)c(OCC)c1.Cl	6.8
COc1cccc(CNc2nc(-c3cccnc3)nc3ccccc23)c1	7.15
O=C1CCc2cc(S(=O)(=O)N3CCC(C(=O)NCCC4=CCCCC4)CC3)ccc2N1	5.5
CN(C)C(CNC(=O)c1ccc2nc[nH]c2c1)c1ccccc1 (stereo not drawn)	10.3
Cc1cc(OCC(=O)c2ccc(Br)cc2)ccc1N1C(=O)CCC1=O	15.9
CCc1nc2ccc(C(=O)N3CCN(CC)CC3)cc2nc1CC	14.2
Cc1cc(Nc2ccc(C)c(Cl)c2)nc(N2CCOCC2)n1	3.46
CC1CN(S(=O)(=O)c2cn(C)c(=O)n(C)c2=O)CC(C)O1 (stereo not drawn)	9.46
CCC(=O)Nc1nnc(SCC(=O)Nc2ccc(F)cc2)s1	10.1

SMILES	hERG current change (%, negative = inhibition) at 1uM [%]
CC(C)(C)c1ccc(C(=O)NNC(=S)NCc2ccco2)cc1	11.2
CCc1c(C(=O)c2ccc(Cl)cc2)oc2c(C)c3oc(=O)cc(C)c3cc12	4.83
CN(C)S(=O)(=O)Nc1cc(Cl)cc(Cl)c1	9.9
COc1ccc(-c2nc(NC(=O)CCNC(=O)c3ccco3)sc2C)cc1	-2.49
COc1cc(/C=C/c2nc3ccccc3c(=O)n2-c2cccc(O)c2)ccc1O	-4.12
CCn1c(SCc2nc3ccccc3s2)nnc1-c1ccccc1	5
CCN(Cc1ccccc1)C(=O)CCS(=O)(=O)c1cc2c(cc1Cl)NC(=O)CO2	-6.56
COc1cc(NC(=O)CSc2ncccc2C(=O)OC(C)C)cc(OC)c1	-1.58
COC(=O)[C@H](Cc1ccccc1)NC(=O)N1CC(C)OC(C)C1 (stereo partly drawn)	-1.39
C/C(=N\NC(=O)CNC(=O)c1cccc(F)c1)c1ccc2ccccc2c1	5.42
CN(Cc1cccc(C(F)(F)F)c1)Cc1nc(-c2cnccn2)no1	6.64
COc1ccc(NC(=O)CN2C(=O)COc3ccc(C)cc32)c(OC)c1	13
O=C(O)c1cccc(N/C(=N\S(=O)(=O)c2ccccc2)c2ccccc2)c1	5.12
COc1ccc(S(=O)(=O)Nc2ccc(Cc3ccncc3)cc2)cc1C	0.33
CC(=O)N1CC(C)Sc2ccc(S(=O)(=O)NC3CCCCC3)cc21 (stereo not drawn)	1.74
Cc1ccc(NC(=O)CSc2nc(N)cc(=O)[nH]2)cc1Cl	10.4
CCc1ccc(S(=O)(=O)Nc2ccccn2)cc1	3.37
C/C(=N\NC(=S)NCc1ccccc1)c1ccc(Cl)s1	6.96
COc1cccc(NC(=O)Cn2cc(C=O)c3ccccc32)c1	15.6
Cc1nc2ccccc2c(=O)n1/N=C/c1ccc(O)c(O)c1O	7.68
Cc1cc(OC(C)C(=O)NCc2ccccn2)c2c(C)c(C)c(=O)oc2c1 (stereo not drawn)	9.68
C/C(=N\OCC(=O)Nn1c(=O)[nH]c2ccccc2c1=O)c1ccccc1	7.94
CCn1c(C(=O)O)c(CC(=O)Nc2cccc(C(F)(F)F)c2)c2ccccc21	10.5

SMILES	hERG current change (%, negative = inhibition) at 1uM [%]
CC(Sc1nnnn1-c1cccc(F)c1)C(=O)NC1CCCC1 (stereo not drawn)	-0.899
CC1=CC(=C(C#N)C#N)c2ccccc2N1C	1.58
O=C(NCCc1ccccn1)C1CCCN(S(=O)(=O)Cc2ccccc2)C1 (stereo not drawn)	13.3
CCOc1ccc(NC(=O)c2ccc(NC(=S)NC3CC3)cc2)cc1	8.57
O=C(/C=C/c1ccc2c(c1)OCO2)NC1CCCC1	11.4
CC(NC(=O)c1ccco1)C(=O)OCc1cccc(Cl)c1 (stereo not drawn)	-6.37
Cc1occc1-c1nnc(SCC(N)=O)o1	12.2
O=C(CSc1n[nH]c(-c2ccco2)n1)Nc1ccc(Br)cc1	11.8
CN1CCN(C(=O)CSc2nnc(COc3ccccc3)o2)CC1	6.98
COC(=O)c1nc2n(n1)C(c1ccc(OC)c(OC)c1OC)C1=C(CCCC1=O)N2 (stereo not drawn)	4.78
N#Cc1cc(C(=O)c2cc(Br)ccc2O)cn(C2CCCCC2)c1=O	7.54
CCC(C)c1ccccc1N1CC(C(=O)Nc2cccc(S(=O)(=O)N3CCOCC3)c2)CC1=O (stereo not drawn)	-18.1
Cn1nnc(NC(=S)NC(=O)c2ccccc2)n1	1.53
Cc1nnsc1C(=O)Nc1cccc(Cl)c1C	7.91
COc1ccc(Cl)cc1NC(=O)CSc1nc(C)cc(C)n1	4.58
CCOc1ccc(CCN2C(=O)c3cccnc3C2=O)cc1OCC	7.23
COc1cccc(C2=NOC(C(=O)NCc3cccs3)C2)c1 (stereo not drawn)	15.9
COc1ccccc1Nc1nc(NCCCN(C)C)nc(N)c1[N+](=O)[O-]	-9.79
CCNc1ccc(C(=O)OCC)cc1NC(=O)c1cccc(N(C)C)c1	10.2
O=C(Nc1ccc2c(c1)nc1n2CCCCC1)c1cc(S(=O)(=O)N2CCOCC2)ccc1Cl	0.302
O=[N+]([O-])c1ccccc1S(=O)(=O)Nc1cccc(-c2ccc(N3CCOCC3)nn2)c1	5.48
CN1CCCC(CC2Oc3ccccc3Sc3ccccc32)C1.O=C(O)C(=O)O (stereo not drawn)	-22.9
CCCc1nnc(NC(=O)CN2C(=O)c3ccccc3C2=O)s1	-1.25

SMILES	hERG current change (%, negative = inhibition) at 1uM [%]
Cc1cccn2cc(CCNC(=O)c3ccco3)nc12	11.1
CC(Sc1ccc(Cl)cc1)C(=O)NNC(=O)c1csc(N2CCOCC2)n1 (stereo not drawn)	1.95
N#Cc1c(C(F)(F)F)cc(C2CC2)nc1N1CCCC1	18.1
NC(=O)C1=C[C@H](c2ccc(C(F)(F)F)cc2)C[C@H](OCCCCO)O1	-0.169
CC(NC(=O)COc1ncnc2cc([N+](=O)[O-])ccc12)c1ccccc1 (stereo not drawn)	4.53
N#Cc1nc(-c2ccc(F)cc2)oc1N1CCCCC1	10.8
Nc1nnc(-c2cccnc2)s1	-3.67
Cc1cc(/C=C2\NC(=O)NC2=O)c(C)n1-c1ccc(N2CCOCC2)cc1	10.3
CSc1cc(CS(=O)(=O)c2ccccc2)nc(-c2ccccc2)n1	4.78
CCOC(=O)C(c1ccccc1)C(Nc1ccc(Cl)c(Cl)c1)c1ccccn1 (stereo not drawn)	10.2
CC(C)C(=O)Nc1cccc(C(=O)NCCc2ccc(S(N)(=O)=O)cc2)c1	8.66
O=C1C=C(O)CC(c2ccco2)C1 (stereo not drawn)	-0.634
COc1ccccc1CNC(=O)C(NC(=O)C1CCCCC1)C(C)C (stereo not drawn)	13.1
Cc1cccc(Cn2c(N(C)CCO)nc3c2c(=O)[nH]c(=O)n3C)c1	4.02
COc1ccc(N2CCN(C(=O)CNC(=O)Cc3ccc(Cl)cc3)CC2)cc1	12.2
COc1ccc(OC)c(CNC(=O)C2CCCN(c3nc4ccccc4o3)C2)c1 (stereo not drawn)	-1.94
CC(C)Oc1cccc(C(=O)NC(=S)Nc2ccc3c4c(cccc24)CC3)c1	7.42
O=C(NCC1COCCO1)c1ccc2nc(Cc3cccc(Cl)c3)oc2c1 (stereo not drawn)	13.1
Cc1ccc(OCn2c(=O)sc3ccccc32)cc1	7.18
O=C(C1CCN(S(=O)(=O)c2cccc([N+](=O)[O-])c2)CC1)N1CCOCC1	10
Cc1ccc(-c2nnc(N3CCN(C(=O)COc4ccccc4)CC3)c3ccccc23)cc1	13.8
